These results are taken from PMC4336329 (PLoS ONE, 2015).

Out of some 310,000 compounds screened, about 14,000 (4.5%) showed an effect of 50% or more. The effect is printed as a negative number. The list shows a part of the results.
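Also: peak tail current of the secondary pulse compared with the same well before compound.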

The target in the test is human ether-à-go-go-related gene (hERG) potassium channel (human, UniProt Q12809). The test can be described thus: primary screen, population patch clamp on CHO cells stably expressing hERG.
Chain of human ether-à-go-go-related gene (hERG) potassium channel (Q12809 whole entry, looked up): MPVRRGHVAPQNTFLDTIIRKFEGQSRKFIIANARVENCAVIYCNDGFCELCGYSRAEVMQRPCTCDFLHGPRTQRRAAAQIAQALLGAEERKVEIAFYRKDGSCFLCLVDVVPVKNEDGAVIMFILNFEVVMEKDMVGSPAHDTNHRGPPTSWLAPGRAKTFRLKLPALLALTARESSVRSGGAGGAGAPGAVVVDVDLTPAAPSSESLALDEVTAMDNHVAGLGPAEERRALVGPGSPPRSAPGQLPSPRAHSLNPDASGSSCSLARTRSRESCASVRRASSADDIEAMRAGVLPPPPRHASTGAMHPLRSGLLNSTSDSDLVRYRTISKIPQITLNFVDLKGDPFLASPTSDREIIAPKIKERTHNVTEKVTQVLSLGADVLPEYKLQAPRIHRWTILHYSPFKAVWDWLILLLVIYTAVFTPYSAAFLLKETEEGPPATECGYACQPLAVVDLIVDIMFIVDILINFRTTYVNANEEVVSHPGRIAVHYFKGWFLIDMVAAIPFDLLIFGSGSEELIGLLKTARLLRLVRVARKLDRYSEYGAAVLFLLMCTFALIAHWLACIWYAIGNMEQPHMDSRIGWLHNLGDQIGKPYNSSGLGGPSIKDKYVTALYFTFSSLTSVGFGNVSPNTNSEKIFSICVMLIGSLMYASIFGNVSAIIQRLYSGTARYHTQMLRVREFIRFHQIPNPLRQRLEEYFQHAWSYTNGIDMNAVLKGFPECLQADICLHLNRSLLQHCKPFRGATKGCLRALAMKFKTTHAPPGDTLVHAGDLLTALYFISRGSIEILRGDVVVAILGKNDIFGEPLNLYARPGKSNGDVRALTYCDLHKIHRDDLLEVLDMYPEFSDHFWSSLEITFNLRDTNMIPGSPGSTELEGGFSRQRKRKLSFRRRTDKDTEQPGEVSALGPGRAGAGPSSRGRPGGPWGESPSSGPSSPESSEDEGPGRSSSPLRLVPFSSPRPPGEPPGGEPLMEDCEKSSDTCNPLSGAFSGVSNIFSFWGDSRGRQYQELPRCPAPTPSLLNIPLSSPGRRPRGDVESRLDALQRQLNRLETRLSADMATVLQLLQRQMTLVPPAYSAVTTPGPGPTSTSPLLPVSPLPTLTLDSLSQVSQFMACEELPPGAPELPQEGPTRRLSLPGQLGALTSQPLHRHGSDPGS
Consider `CC(C)NC(=O)C(Cc1ccccc1)N1C(=O)c2ccccc2C1=O` (stereo not drawn), for which the “hERG current change (%, negative = inhibition) at 10uM” value was -4.63%.
The same measure for `Nc1cc(=O)[nH]c(SCC(=O)N2CCC(Cc3ccccc3)CC2)n1`: -2.88%; for `CCc1c(C)nc(N)n2c(SCC(=O)Nc3ccccc3OC)nnc12`: 11.8%.
The same measure for `CCn1cc(C(=O)N[C@@H](C)C(=O)NCCO)c(=O)c2cc3c(cc21)OCO3`: 8.64%.
For the molecule `CCn1c(SCc2ccccc2)nc2cc(OC)c(OC)cc2c1=O`, the “hERG current change (%, negative = inhibition) at 10uM” value turned out to be 21.4%.
The figure for `CCCS(=O)(=O)N1CCCC(C(=O)N2CCC3(CC2)OCCO3)C1` (stereo not drawn) is 15.7%; for `CCOc1ccccc1C(C(=O)NC1CCCC1)N(C(=O)c1csnn1)C1CC1` (stereo not drawn) it is 13.6%; for `CC(C)CNC(=O)c1ccccc1NC(=O)/C=C/c1cccc([N+](=O)[O-])c1` it is 21.3%.
The same measure for `c1ccc(-c2ccc(SCc3cccnc3)nn2)nc1`: 8.9%; for `Cc1c(NC(=S)Nc2ccccc2C(F)(F)F)cccc1[N+](=O)[O-]`: 8.27%.
The figure for `CCc1ccccc1NC(=O)COc1ccc2c(c1)OCO2` is -4.6%; for `Cc1ccc(OCC(=O)NCCc2nc3ccccc3[nH]2)c(C)c1` it is -5.52%.
Turning to `CNC(=O)Cn1c(C)cc(=O)c2cccc(OC)c21`, the “hERG current change (%, negative = inhibition) at 10uM” value turned out to be 4.12%.
Turning to `CCOC(=O)C1=C(C)Nc2ncnn2C1c1cc(Br)ccc1F` (stereo not drawn), the “hERG current change (%, negative = inhibition) at 10uM” value worked out at 14%.
The figure for `CN(CC(=O)Nc1c(Cl)cccc1Cl)C(=O)CNC(=O)c1ccc2ccccc2c1` is 13.5%.
The figure for `O=C(Nc1ccnc(-c2cccnc2)n1)c1cccc(Cl)c1Cl` is -10.1%.
The same measure for `CCN(CC)C(=S)Nc1ccc(C(=O)OC)cc1`: 1.45%; for `O=C(c1ccc(C(=O)N2CCCCCC2)cc1)N1CCCCCC1`: -1.85%; for `CC1CC(C)CN(CCC(=O)Nc2cccc(Cl)c2)C1` (stereo not drawn): -49.1%.
Take `Cc1c2cnn(CC(=O)N3CCC4(CC3)OCCO4)c(=O)c2c(C)n1Cc1ccccc1`: the “hERG current change (%, negative = inhibition) at 10uM” value is reported as -0.415%.
The same measure for `O=C(N/N=C/c1ccc(OC(F)F)cc1OC(F)F)c1ccc(Br)cc1`: -6.46%; for `Cc1ccc(S(=O)(=O)CCC(=O)OCC(=O)N2c3ccccc3NC(=O)C2(C)C)cc1`: 14%.
The same measure for `Cc1oc(-c2cccc3ccccc23)nc1CN1CCN(c2ncnc3ccccc23)CC1`: -11.9%; for `CC(Sc1nnnn1-c1ccc(O)cc1)C(=O)NC1CCCCC1C` (stereo not drawn): -9.23%.
The figure for `CCC1=Nc2cc(C(=O)NCc3cccnc3)ccc2Sc2ccc(C)cc21` is -15%; for `O=C(CN(C(=O)C1CSC(=O)C1)c1ccccc1F)NCc1ccc2c(c1)OCO2` (stereo not drawn) it is -12.4%.
As for `Cc1cc(/C=C2\C(=O)NC(=O)N(Cc3ccccc3Cl)C2=O)c(C)n1-c1ccc(C(=O)O)cc1`, the “hERG current change (%, negative = inhibition) at 10uM” value turned out to be 46%.
The same measure for `CCOc1ccc(C(=O)Nc2cccc(-c3nc4ccccc4[nH]3)c2C)cc1[N+](=O)[O-]`: -39.1%.
The same measure for `CCn1c(=O)cc(OCC(=O)N2CCCCCC2)c2ccccc21`: 3.9%.
The same measure for `CCCCCC(=O)Nc1cc(S(=O)(=O)N2CCOCC2)ccc1N1CCCCC1`: -30.6%.
With `c1ccc(CCN2CCN(c3ncnc4c3cnn4-c3ccccc3)CC2)cc1`, the “hERG current change (%, negative = inhibition) at 10uM” value is -19.8%.
The figure for `O=S(=O)(c1ccc2c(c1)nc1n2CCC1)N1CCOCC1` is -13.9%; for `COc1ccc(CNC(=O)CN2CCC(NC(=O)c3ccccc3C)CC2)cc1` it is -39.6%.
The same measure for `Cc1ccc(N/N=C/c2ccc(N3CCOCC3)cc2)cc1C`: -5.47%; for `Cc1nn(C)c(C)c1C1C(C#N)=C(N)Oc2n[nH]c(C)c21` (stereo not drawn): -1.56%; for `COCCNC(C)C(=O)C12CC3CC(CC(C3)C1)C2.Cl` (stereo not drawn): 3.94%.
The same measure for `COc1ccc(-c2csc(N3N=C(C)C(C)C3=O)n2)cc1` (stereo not drawn): -2.16%; for `Cc1cc(OCC(=O)NC2CC2)c2c(C)cc(=O)oc2c1`: -12.5%; for `Cc1cccc(C(=O)Nc2nc3ccc(S(C)(=O)=O)cc3s2)c1`: 0.0902%.
For the molecule `[O-]c1c[n+](-c2ccccc2)no1`, the “hERG current change (%, negative = inhibition) at 10uM” value is given as 15.7%.
The same measure for `CCNC(=S)N=Nc1c(O)n(Cc2ccc(Cl)cc2)c2ccccc12`: -3.23%; for `C[n+]1cnc(-c2ccccc2)cc1-c1ccccc1.[I-]`: -9.29%; for `CCNC(=S)N(CCCN(C)C)Cc1cc2cc3c(cc2[nH]c1=O)OCCO3`: 6.38%.
`Cc1nnc(SCC(=O)N(C2CCCCC2)C2CCS(=O)(=O)C2)n1C` (stereo not drawn): the “hERG current change (%, negative = inhibition) at 10uM” value is 1.05%.
The figure for `CCOC(=O)C1CCN(C(=O)CCNC(=O)c2ccccc2OC)CC1` is 11.5%; for `CN(CC1CCN(CCc2cccc(C(F)(F)F)c2)CC1)C(=O)c1ccc(F)cc1` it is -70.8%; for `O=C(COC(=O)c1ccc(O)cc1O)NNC(=O)c1cccs1` it is 6.45%.
The figure for `CC1(C)OC(=O)N(NCc2ccccc2)C1(C)O` (stereo not drawn) is 19%; for `O=C(Nc1cccc(Cl)c1)C1=Cc2cc(Cl)ccc2OC1` it is 8.16%; for `COc1ccc(C2=CC(=O)C[C@H](c3ccc(Cl)cc3)C2)cn1` it is -12.4%.
The same measure for `CCN(CC(=O)NCCc1ccc(Cl)cc1)Cc1nc2ccccc2c(=O)[nH]1`: -53.3%; for `CCOC(=O)c1cc(C)nc(S(C)(=O)=O)c1C#N`: 22.6%; for `COc1ccccc1NC(=S)N(CCCN1CCOCC1)Cc1ccccn1`: -14.3%.
In the case of `Cc1cccn2c(=O)c3cc(C(=O)NCc4ccco4)c(=N)n(CCOCCO)c3nc12`, the “hERG current change (%, negative = inhibition) at 10uM” value is reported as -74.9%.
Take `CC(OC(=O)c1cc(S(=O)(=O)N2CCOCC2)ccc1F)C(=O)NC1CCCCC1C` (stereo not drawn): the “hERG current change (%, negative = inhibition) at 10uM” value was determined as 0.582%.
The figure for `O=[N+]([O-])c1cc(S(=O)(=O)NCCc2ccccn2)ccc1Cl` is -21.8%; for `Cc1ccc(NC(=O)CN2CCC(NC(=O)c3cccc(F)c3)CC2)cc1C` it is -41.3%.
